Hit rate of the full screen: of about 310,000 compounds, about 2,200 (0.71%) showed an effect of 50% or more. Effects have a minus sign here. This is one part of the list.
Target: human ether-à-go-go-related gene (hERG) potassium channel (human, UniProt Q12809)
Experiment: primary screen, population patch clamp on CHO cells stably expressing hERG
Experimental: Briefly, Chinese hamster ovary (CHO) cells stably expressing the hERG channel were dislodged from tissue culture flasks and dispensed into PPC plates. […] During the recording, background leak currents were estimated by a 100 ms step to -80 mV from an initial holding potential of -70 mV and subtracted from the subsequent current measurement. The campaign was conducted in two phases using slight differences in recording protocol. In the first phase, the initial voltage pulse used a 100 ms step to -30 mV from a holding potential of -70 mV, a 2 s conditioning step to +25 mV, and a 2 s test step to -30 mV. During the second phase of the screen, the potential during the conditioning step was raised to +45 mV. In both phases of the campaign, a secondary voltage pulse was applied using the same parameters as the second phase initial pulse. The initial and secondary pulses were applied in the absence of compound, and upon application of 1 μM and 10 μM test concentrations. Small molecule effects on hERG current density were quantified by […].

human ether-à-go-go-related gene (hERG) potassium channel, sequence (Q12809 whole entry, looked up): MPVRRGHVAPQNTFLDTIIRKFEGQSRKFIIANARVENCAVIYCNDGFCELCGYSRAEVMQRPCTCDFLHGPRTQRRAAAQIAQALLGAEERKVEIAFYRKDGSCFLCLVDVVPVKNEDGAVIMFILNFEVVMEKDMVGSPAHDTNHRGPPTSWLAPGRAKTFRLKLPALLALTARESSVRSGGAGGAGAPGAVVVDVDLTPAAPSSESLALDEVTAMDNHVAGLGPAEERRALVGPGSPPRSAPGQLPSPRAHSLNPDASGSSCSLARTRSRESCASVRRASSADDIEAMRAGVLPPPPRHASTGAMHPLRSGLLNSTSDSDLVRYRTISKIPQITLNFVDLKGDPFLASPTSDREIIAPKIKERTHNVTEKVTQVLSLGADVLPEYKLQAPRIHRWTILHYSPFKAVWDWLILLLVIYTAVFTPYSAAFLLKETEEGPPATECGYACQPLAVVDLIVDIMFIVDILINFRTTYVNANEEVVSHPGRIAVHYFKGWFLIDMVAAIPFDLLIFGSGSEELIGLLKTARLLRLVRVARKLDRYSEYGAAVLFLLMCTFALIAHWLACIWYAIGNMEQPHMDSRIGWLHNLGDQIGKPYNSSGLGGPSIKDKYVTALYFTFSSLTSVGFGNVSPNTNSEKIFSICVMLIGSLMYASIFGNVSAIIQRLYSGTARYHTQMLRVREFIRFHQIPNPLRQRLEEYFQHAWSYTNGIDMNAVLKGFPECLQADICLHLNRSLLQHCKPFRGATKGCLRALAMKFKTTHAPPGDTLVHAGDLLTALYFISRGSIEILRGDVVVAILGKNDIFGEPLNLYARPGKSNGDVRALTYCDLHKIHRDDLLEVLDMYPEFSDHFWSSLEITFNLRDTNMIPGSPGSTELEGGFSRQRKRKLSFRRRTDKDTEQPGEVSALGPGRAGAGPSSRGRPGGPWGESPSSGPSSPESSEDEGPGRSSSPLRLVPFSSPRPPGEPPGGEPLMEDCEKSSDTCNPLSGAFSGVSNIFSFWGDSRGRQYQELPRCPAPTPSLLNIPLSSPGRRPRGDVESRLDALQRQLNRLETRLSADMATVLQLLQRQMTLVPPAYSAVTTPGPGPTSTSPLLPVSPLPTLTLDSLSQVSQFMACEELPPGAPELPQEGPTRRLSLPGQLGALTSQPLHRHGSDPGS

Compound | hERG current change (%, negative = inhibition) at 1uM
O=C(Cn1ccc([N+](=O)[O-])n1)NCc1ccco1 | 13%
Nc1cc(=O)[nH]c(N)n1 | 11.1%
CCCOc1ccc(Cc2c(Cl)nc(SC)nc2N(C)C)cc1 | 12.8%
COc1ccc(Cn2nnc3c(=O)[nH]c(C4CCCN(C(=O)c5ccccc5)C4)nc32)cc1 (centres unmarked) | 9.19%
Cc1cccc(C)c1NC(=O)CN1C(=O)C2CC=CCC2C1=O (centres unmarked) | 19.7%
COc1ccc(C(=O)NNC(=O)c2ccc(S(=O)(=O)N3CCCCC3)cc2)cc1 | 11%
Cc1cccc(-c2nsc(SCC(=O)Nc3ccc4c(c3)OCO4)n2)c1 | -19.4%
NC(=O)NC(CC(=O)NCCc1ccccn1)c1ccccc1Cl (centres unmarked) | 9.58%
Cl.Cn1cccc1CNCC(O)c1ccccc1 (centres unmarked) | -1.36%
Cc1cccc(NC(=O)CSc2nnc(Cn3nnc(-c4ccccc4)n3)n2-c2ccccc2)c1 | 1.59%
CC(C)CCNC(=O)CNC(=S)N(CCCN1CCOCC1)Cc1cccs1 | -0.616%
COc1cc(CCCN[C@H](CN)Cc2ccccc2)cc(OC)c1OC | 8.36%
COc1ccc(N(CC(=O)Nc2cccnc2)S(=O)(=O)c2ccccc2)cc1Cl | 4.2%
COc1cccc(CNCc2ccccc2Br)c1OC.O=C(O)C(=O)O | 11.2%
CCC(=O)N1CCc2cc(S(=O)(=O)N3CCN(c4ccccc4)CC3)ccc21 | 17.8%
Nc1c(S(=O)(=O)c2ccccc2)nnn1-c1ccccc1 | 0.451%
CCCNC(=O)C(NS(=O)(=O)c1cccc2nsnc12)c1ccccc1 (centres unmarked) | 13.8%
CCOc1ccc(OCC)c(NC(=O)C2CCCN(c3nc(C)cc(C)n3)C2)c1 (centres unmarked) | 2.53%
O=c1c2ccccc2nc(-c2ccccc2)n1-c1ccncc1 | -13%
Cc1cccc(C)c1NC(=O)CN(C)c1ccc(C(F)(F)F)cn1 | 4.55%
C=CCNC(NC(=O)c1ccccc1)(C(=O)OCC)C(F)(F)F (centres unmarked) | 18.6%
CC(C)[C@H](NC(=O)N1c2ccccc2NC(=O)[C@@H]1C(C)C)C(=O)N[C@H](C(=O)O)c1ccccc1 | -7.26%

Compound | hERG current change (%, negative = inhibition) at 1uM
CC(NC(=O)CN(c1ccc(Br)cc1)S(C)(=O)=O)c1ccccc1 (centres unmarked) | 5.11%
COc1ccc(-c2[nH]c3ccccc3c2SCCNC(=O)c2cc3ccccc3oc2=O)cc1 | 10.3%
COC(=O)[C@@H]1[C@@H](C)OC(=O)N[C@H]1c1ccccc1 | -8.26%
O=C(CSc1ccccn1)c1ccc(F)cc1 | -21.5%
CC(C)N(C(=O)CSc1nnc(Cc2csc(Nc3ccccc3)n2)o1)C(C)C | 9.96%
Cc1nc(SCC(N)=O)c([N+](=O)[O-])[nH]1 | -26.7%
O=C(N/C(=C/c1ccc(Br)cc1)C(=O)N1CCCC1)c1ccccc1F | -27.2%
CC(NC(=O)c1cc2ccccc2o1)c1cccs1 (centres unmarked) | 8.94%
Cc1nnc2sc(SCC(=O)Nc3ccc(Br)cc3)nn2c1=O | 4.53%
COc1ccc2oc(C(=O)N(CC(C)C)C3CCS(=O)(=O)C3)c(C)c2c1 (centres unmarked) | -0.145%
COc1cccc(OC)c1C(=O)OCC(=O)Nc1ccc(OC(F)(F)F)cc1 | -16.4%
COc1cc(/C=C2\SC(N3CCc4ccccc4C3)=NC2=O)cc(OC)c1OC | 5.93%
COc1ccccc1NC(=O)C1CCN(S(=O)(=O)c2ccc3c(c2)NC(=O)C(C)S3)CC1 (centres unmarked) | 9.65%
CC(=O)Nc1ccc(NC(=O)C2CCCN2/C=C/C(=O)C(F)(F)F)cc1 (centres unmarked) | 7.22%
COC(=O)N/N=C/c1cc(Cl)cc(Cl)c1OCc1ccc(F)cc1 | 13.7%
NC(=O)c1nsc(C(=O)N(c2ccccc2)C(C(=O)NC2CCCCC2)c2ccc(O)cc2)c1N (centres unmarked) | 6.54%
FC(F)(F)c1cnc(Oc2ccc(-c3nnco3)cc2)c(Cl)c1 | 12.2%
Cc1ccc(S(=O)(=O)NC(C(=O)O)c2ccccc2)cc1 (centres unmarked) | 12.8%
O=C(CN1C(=O)c2ccc([N+](=O)[O-])cc2C1=O)NCc1ccco1 | 15.2%
Cn1cc(S(=O)(=O)NC(c2ccccc2)c2ccccc2)c(=O)n(C)c1=O | 3.54%
O=C(COc1ccccc1)N1CCN=C1SCc1ccccc1 | 11.1%
O=C(Nc1ccccc1C(=O)NCc1cccnc1)c1cccc([N+](=O)[O-])c1 | 5.95%

Reference: publication PMC4336329 (PLoS ONE, 2015)
